Reference: the supplement of paper PMC10369915
The other results are listed elsewhere or left out. Cut-off read from the data, not from the text of the source: active = 3.2 or more and inactive = the rest. Most of these values are background signal.

What was measured:
Experiment in all cases: enrichment score (SH2-bound / input frequency) (ratio); bacterial display of known human phosphotyrosine sites (pTyr-Var adds point mutants) read by sequencing; higher = stronger binding; tyrosines were phosphorylated by kinases first
Details in all cases: peptide library: pTyr-Var
[1] = target: SHP2 C-SH2 domain E139D
[2] = target: SHP2 C-SH2 domain wild-type
[3] = target: SHP2 N-SH2 domain L43F
[4] = target: SHP2 N-SH2 domain T42A
[5] = target: SHP2 N-SH2 domain T52S
[6] = target: SHP2 N-SH2 domain wild-type
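Note: displayed peptides selected on beads carrying the immobilized SH2 domain, with library peptides lacking any tyrosine serving as negative controls.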

In the case of FGAHKYHPLPV [OAT_Y55_N54K_YF], the enrichment score [1] is reported as inactive: 2.78, the enrichment score [2] is reported as inactive: 2.44 and the enrichment score [3] is reported as inactive: 2.74. The enrichment score [4] was inactive: 2.08, the enrichment score [5] was inactive: 2.55 and the enrichment score [6] was inactive: 2.36.

FGAHNHHPLPV [OAT_Y55_Y55H_YF] was tested, and the enrichment score [1] was active: 3.52, the enrichment score [2] was inactive: 2.61 and the enrichment score [3] was active: 3.21. The enrichment score [4] was inactive: 2.13, the enrichment score [5] was inactive: 3.06 and the enrichment score [6] was inactive: 2.76.

In the case of DFLSSYSAVKQ [OAT_Y85_N89K], the enrichment score [1] is reported as inactive: 1.37, the enrichment score [2] is reported as inactive: 1.98 and the enrichment score [3] is reported as inactive: 0.783. The enrichment score [4] was inactive: 0.804, the enrichment score [5] was inactive: 1.05 and the enrichment score [6] was inactive: 1.02.

SLIDMYSKVLD [OPA1_Y268_E270K] was tested, and the enrichment score [1] was inactive: 0.75, the enrichment score [2] was inactive: 0.805 and the enrichment score [3] was inactive: 0.835. For the same binder, the enrichment score [4] was inactive: 0.782, the enrichment score [5] was inactive: 0.925 and the enrichment score [6] was inactive: 0.749.

In the case of MKALGYFAVVK [OPA1_Y498_T503K], the enrichment score [1] is reported as inactive: 1.21, the enrichment score [2] is reported as inactive: 1.2 and the enrichment score [3] is reported as inactive: 0.969. The enrichment score [4] was inactive: 1.43, the enrichment score [5] was inactive: 1.52 and the enrichment score [6] was inactive: 1.49.

With VQDPAYLRDID [OPRK1_Y369] the enrichment score [1] was inactive: 0.785, the enrichment score [2] was inactive: 0.642 and the enrichment score [3] was inactive: 0.704. For the same binder, the enrichment score [4] was inactive: 0.652, the enrichment score [5] was inactive: 0.574 and the enrichment score [6] was inactive: 0.668.

In the case of KQELVYTNKKL [OPTN_Y356], the enrichment score [1] is reported as inactive: 0.669, the enrichment score [2] is reported as inactive: 0.712 and the enrichment score [3] is reported as inactive: 0.595. For the same binder, the enrichment score [4] was inactive: 0.519, the enrichment score [5] was inactive: 0.472 and the enrichment score [6] was inactive: 0.664.

For KQELVYPNKKL [OPTN_Y356_T357P], the enrichment score [1] was inactive: 0.652, the enrichment score [2] was inactive: 0.674 and the enrichment score [3] was inactive: 0.789. The enrichment score [4] was inactive: 0.787, the enrichment score [5] was inactive: 0.821 and the enrichment score [6] was inactive: 0.956.

In the case of MVSLFYGTALF [OR10C1_Y251], the enrichment score [1] is reported as inactive: 0.876, the enrichment score [2] is reported as inactive: 1.1 and the enrichment score [3] is reported as inactive: 0.712. For the same binder, the enrichment score [4] was inactive: 0.814, the enrichment score [5] was inactive: 0.879 and the enrichment score [6] was inactive: 0.827.

For LNPFIYSLRNR [OR1A1_Y288], the enrichment score [1] was inactive: 0.217, the enrichment score [2] was inactive: 0.249 and the enrichment score [3] was inactive: 0.422. For the same binder, the enrichment score [4] was inactive: 0.414, the enrichment score [5] was inactive: 0.327 and the enrichment score [6] was inactive: 0.223.

In the case of LNPFIYSLRNW [OR1A2_Y288], the enrichment score [1] is reported as inactive: 2.95, the enrichment score [2] is reported as inactive: 2.18 and the enrichment score [3] is reported as active: 3.69. The enrichment score [4] was inactive: 2.23, the enrichment score [5] was inactive: 3.01 and the enrichment score [6] was inactive: 1.49.

With FVIISYVLIIR [OR1D2_Y218] the enrichment score [1] was inactive: 1.42, the enrichment score [2] was inactive: 1.84 and the enrichment score [3] was inactive: 1.46. For the same binder, the enrichment score [4] was inactive: 1.28, the enrichment score [5] was inactive: 2.16 and the enrichment score [6] was inactive: 1.13.

For FMIISYVLIIR [OR1D2_Y218_V214M], the enrichment score [1] was inactive: 2.03, the enrichment score [2] was inactive: 1.71 and the enrichment score [3] was inactive: 1.33. The enrichment score [4] was inactive: 1.54, the enrichment score [5] was inactive: 1.94 and the enrichment score [6] was inactive: 1.61.

With MALDRYVAICK [OR2B11_Y127] the enrichment score [1] was inactive: 0.723, the enrichment score [2] was inactive: 0.713 and the enrichment score [3] was inactive: 0.681. The enrichment score [4] was inactive: 0.797, the enrichment score [5] was inactive: 0.688 and the enrichment score [6] was inactive: 0.764.

In the case of LNPLVYTLRNA [OR4C12_Y285_V283L], the enrichment score [1] is reported as inactive: 0.898, the enrichment score [2] is reported as inactive: 1.13 and the enrichment score [3] is reported as active: 4.47. For the same binder, the enrichment score [4] was inactive: 1.04, the enrichment score [5] was active: 5.19 and the enrichment score [6] was active: 7.21.

For LTDTVYSSSSA [OR4C12_Y71_I67T], the enrichment score [1] was inactive: 1.12, the enrichment score [2] was inactive: 1.24 and the enrichment score [3] was inactive: 0.764. For the same binder, the enrichment score [4] was inactive: 0.782, the enrichment score [5] was inactive: 0.803 and the enrichment score [6] was inactive: 1.1.

For LNPLIYTLRNA [OR4C46_Y285_K288R], the enrichment score [1] was inactive: 1.49, the enrichment score [2] was inactive: 1.09 and the enrichment score [3] was active: 6.55. The enrichment score [4] was inactive: 1.11, the enrichment score [5] was active: 8.6 and the enrichment score [6] was inactive: 2.1.

With MAFDRYVAICA [OR52J3_Y125_V128I] the enrichment score [1] was inactive: 1.21, the enrichment score [2] was inactive: 1.4 and the enrichment score [3] was inactive: 1.07. For the same binder, the enrichment score [4] was inactive: 1.03, the enrichment score [5] was inactive: 0.859 and the enrichment score [6] was inactive: 1.87.

With MACDRYVAICS [OR8D4_Y123] the enrichment score [1] was inactive: 1.39, the enrichment score [2] was inactive: 1.87 and the enrichment score [3] was inactive: 1.48. For the same binder, the enrichment score [4] was inactive: 1.64, the enrichment score [5] was inactive: 1.5 and the enrichment score [6] was inactive: 0.927.

With MAYDRYVAICS [OR8D4_Y123_C120Y] the enrichment score [1] was inactive: 0.76, the enrichment score [2] was inactive: 0.979 and the enrichment score [3] was inactive: 0.797. The enrichment score [4] was inactive: 0.753, the enrichment score [5] was inactive: 0.734 and the enrichment score [6] was inactive: 0.894.

With CSPLLYKVIMS [OR8D4_Y132_R133K] the enrichment score [1] was inactive: 0.754, the enrichment score [2] was inactive: 1.21 and the enrichment score [3] was inactive: 0.949. For the same binder, the enrichment score [4] was inactive: 0.802, the enrichment score [5] was inactive: 0.618 and the enrichment score [6] was inactive: 1.51.

For VASMFYTLVIP [OR8K3_Y277_I275M], the enrichment score [1] was inactive: 2.79, the enrichment score [2] was inactive: 2.59 and the enrichment score [3] was inactive: 2.27. The enrichment score [4] was inactive: 2.4, the enrichment score [5] was inactive: 2.39 and the enrichment score [6] was inactive: 2.33.

For DLTQDSEEWKR [ORC6_Y232_Y232S], the enrichment score [1] was inactive: 0.42, the enrichment score [2] was inactive: 0.606 and the enrichment score [3] was inactive: 0.634. The enrichment score [4] was inactive: 0.457, the enrichment score [5] was inactive: 0.536 and the enrichment score [6] was inactive: 0.706.

For KHGGNYVPAPE [OSCP1_Y237_K242E], the enrichment score [1] was inactive: 0.741, the enrichment score [2] was inactive: 0.679 and the enrichment score [3] was inactive: 0.467. The enrichment score [4] was inactive: 0.524, the enrichment score [5] was inactive: 0.559 and the enrichment score [6] was inactive: 0.821.

For ATPKGYEPDAS [OTC_Y223], the enrichment score [1] was inactive: 0.662, the enrichment score [2] was inactive: 0.505 and the enrichment score [3] was inactive: 0.618. The enrichment score [4] was inactive: 0.549, the enrichment score [5] was inactive: 0.521 and the enrichment score [6] was inactive: 0.736.

With DDEVFYSPRSL [OTC_Y317] the enrichment score [1] was inactive: 0.741, the enrichment score [2] was inactive: 0.705 and the enrichment score [3] was inactive: 0.664. For the same binder, the enrichment score [4] was inactive: 0.582, the enrichment score [5] was inactive: 0.506 and the enrichment score [6] was inactive: 0.749.

SPLTDYSPQLQ [OTC_Y345_L341P] was tested, and the enrichment score [1] was inactive: 0.822, the enrichment score [2] was inactive: 0.606 and the enrichment score [3] was inactive: 0.734. The enrichment score [4] was inactive: 0.58, the enrichment score [5] was inactive: 0.752 and the enrichment score [6] was inactive: 0.816.

SLLTDCSPQLQ [OTC_Y345_Y345C] was tested, and the enrichment score [1] was inactive: 0.821, the enrichment score [2] was inactive: 0.906 and the enrichment score [3] was inactive: 0.811. The enrichment score [4] was inactive: 0.698, the enrichment score [5] was inactive: 0.808 and the enrichment score [6] was inactive: 0.828.

With GEEIKYMLWLS [OTC_Y55] the enrichment score [1] was inactive: 0.741, the enrichment score [2] was inactive: 0.67 and the enrichment score [3] was inactive: 0.946. The enrichment score [4] was inactive: 0.709, the enrichment score [5] was inactive: 0.542 and the enrichment score [6] was inactive: 0.979.

For LRRFIYRPPDR [OTOF_Y1231], the enrichment score [1] was inactive: 0.235, the enrichment score [2] was inactive: 0.38 and the enrichment score [3] was inactive: 0.346. For the same binder, the enrichment score [4] was inactive: 0.398, the enrichment score [5] was inactive: 0.413 and the enrichment score [6] was inactive: 0.295.

In the case of GRPMDYQVSIT [OTOF_Y254], the enrichment score [1] is reported as inactive: 0.946, the enrichment score [2] is reported as inactive: 0.814 and the enrichment score [3] is reported as inactive: 0.773. The enrichment score [4] was inactive: 0.832, the enrichment score [5] was inactive: 0.906 and the enrichment score [6] was inactive: 0.915.

For GRPMDYHVSIT [OTOF_Y254_Q255H], the enrichment score [1] was inactive: 1.17, the enrichment score [2] was inactive: 1.1 and the enrichment score [3] was inactive: 1. For the same binder, the enrichment score [4] was inactive: 1.07, the enrichment score [5] was inactive: 0.95 and the enrichment score [6] was inactive: 1.01.

For RAIELYNDKEK [OTULIN_Y244], the enrichment score [1] was inactive: 0.748, the enrichment score [2] was inactive: 0.617 and the enrichment score [3] was inactive: 0.858. The enrichment score [4] was inactive: 0.634, the enrichment score [5] was inactive: 0.659 and the enrichment score [6] was inactive: 0.683.

With SLHPGYNFRYA [P2RX7_Y291_Y288H] the enrichment score [1] was inactive: 1.14, the enrichment score [2] was inactive: 0.89 and the enrichment score [3] was inactive: 1.15. The enrichment score [4] was inactive: 0.905, the enrichment score [5] was inactive: 1.12 and the enrichment score [6] was inactive: 1.

For SLHPGYNFRFA [P2RX7_Y291_Y288H_YF], the enrichment score [1] was inactive: 1.28, the enrichment score [2] was inactive: 1.6 and the enrichment score [3] was inactive: 1.41. The enrichment score [4] was inactive: 1.47, the enrichment score [5] was inactive: 1.41 and the enrichment score [6] was inactive: 1.66.

In the case of ELTAKYLNYYQ [P3H4_Y181], the enrichment score [1] is reported as inactive: 1.06, the enrichment score [2] is reported as inactive: 0.812 and the enrichment score [3] is reported as inactive: 1.24. For the same binder, the enrichment score [4] was inactive: 1.27, the enrichment score [5] was inactive: 1.18 and the enrichment score [6] was inactive: 1.19.

ELTAKYLNYYR [P3H4_Y181_Q186R] was tested, and the enrichment score [1] was inactive: 1.23, the enrichment score [2] was inactive: 0.968 and the enrichment score [3] was inactive: 0.986. For the same binder, the enrichment score [4] was inactive: 1.14, the enrichment score [5] was inactive: 0.987 and the enrichment score [6] was inactive: 1.28.
